PubChem BioAssay AID2101 (National Center for Advancing Translational Sciences (NCATS), 2009)
The whole screen tested about 330,000 compounds, of which about 300 (0.091%) were called active. This list was built around the results that the source calls inconclusive (neither active nor inactive); the mix of calls is not that of the screen. The call rests on the fitted dose curve; in most records, active means well fitted inhibition curve with a large enough effect; inconclusive means small, poorly fitted or top-dose-only effect, or effect the other way, or another doubt; inactive means no such curve, though single readings can be large or run the other way. No potency is given beside an inconclusive call; the fits are too rough.

Biological target: Lysosomal acid glucosylceramidase (Homo sapiens) (UniProt P04062)
Test: qHTS Assay for Inhibitors and Activators of N370S glucocerebrosidase as a Potential Chaperone Treatment of Gaucher Disease;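 on activity change, negative = inhibition: 0% = full enzyme activity and -100% = no enzyme basal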
Settings: N370S GC spleen homogenate, 4MU-glucoside fluorescence; activity change, negative = inhibition: at 59.4 µM (top of the series) unless noted
Potency means the concentration at half of the fitted maximal effect.

Row | Structure (SMILES) | activity change, negative = inhibition | Potency
1 | CCOC(=O)C1=C[C@@H](C(=O)OCC)[C@@H]2C3=C(C(=O)C2(C)C)[C@H](c2ccccc2)[C@@H]2C(=O)N(c4ccccc4)C(=O)[C@@H]2[C@@H]3C1 | inactive: 4.29% | –
2 | CCc1nnc(N/N=C/c2c(C)[nH]c3ccccc23)n1N | inactive: 5.65% | –
3 | CCOC(=O)C1CCCN(C(=O)c2ccc3nc(-c4ccccc4)c(-c4ccccc4)nc3c2)C1 (centres undefined) | – | inconclusive [activator, single point]
4 | C=CCn1cc(C(=O)NCCN(CC)CC)c(=O)c2cc(S(=O)(=O)N3CCCCCC3)ccc21 | – | inconclusive [inhibitor, partial curve]
5 | C[C@@H]1C(c2cccc(Cl)c2)=NN(c2ccccc2)[C@H]1C(=O)N1CCOC1=O | – | inconclusive [activator, partial curve]
6 | O=C(/C=C/c1ccc2c(c1)OCO2)N1CCCCC1 | inactive: 1.04% | –
7 | Cc1ccc(CNC(=O)CCS(=O)(=O)c2cc(Br)cc3c2N(C(=O)C2CC2)CC3)o1 | inconclusive: 31.5% [activator] | –
8 | CC(C)(O)C#Cc1ccc(C(=O)NC2CCCCC2)s1 | inactive: -1.96% | –
9 | CCOC(=O)CSc1nc(Cc2ccccc2)nc2ccccc12 | – | inconclusive [activator, single point]
10 | COc1ccc(-c2nn(-c3ccccc3)cc2/C=N/Nc2ccc3ccccc3n2)cc1OC | – | inconclusive [activator, single point]
11 | COc1ccc(Cc2nnc(-c3cccc(C)c3)o2)cc1OC | inconclusive: 30.5% [activator] | –
12 | O=C(NCc1cccnc1)/C(=C/c1ccc(-c2cccc(C(F)(F)F)c2)o1)NC(=O)c1ccccc1 | – | inconclusive [inhibitor, single point]
13 | CCOC(=O)CNC(=O)Nc1nnc(-c2ccc(OCC)cc2)o1 | – | inconclusive [inhibitor, partial curve, poor fit]
14 | Cc1ccc2sc(NC(=O)c3ccc(N4C(=O)CCC4=O)cc3)nc2c1C | – | inconclusive [inhibitor, full curve, poor fit]
15 | Cc1cc(C)c(C)c(C(=O)c2ccccc2C(=O)O)c1C | – | inconclusive [inhibitor, single point]
16 | COc1cccc(NC(=O)c2ccccc2-c2nc(-c3cccc(C)c3)no2)c1 | – | inconclusive [activator, partial curve]
17 | Cc1csc2c(N3CCCCC3)ncnc12 | inactive: 0.0748% | –
18 | CCn1c2ccccc2c2cc(NC(=O)CSc3nnc(-c4ccc(OC)c(OC)c4)n3N)ccc21 | inconclusive: 16.5% [activator] | –
19 | CC1C(=O)Nc2ccc(S(=O)(=O)N3CCN(c4ccccc4F)CC3)cc2NC1=O (centres undefined) | – | inconclusive [inhibitor, single point]
20 | Cc1ccc2[nH]c(-c3ccc(F)cc3F)cc(=O)c2c1 | inactive: 9.94% [at 89.1 µM] | –
21 | S=C(Nc1ccc(Br)cc1)NC1CCN(Cc2ccccc2)CC1 | – | inconclusive [inhibitor, partial curve]
22 | COc1ccc(/C=C2\CCc3ccccc3C2=O)cc1Cn1cccn1 | – | inconclusive [activator, partial curve]
23 | CN(C)C(=O)c1ccc(-c2cc(NCc3cccnc3)ncn2)cc1 | inactive: 11.1% | –

Row | Structure (SMILES) | activity change, negative = inhibition | Potency
24 | COc1nc(N(C)C)nc(N(C#N)CCOC(C)=O)n1 | – | inconclusive [inhibitor, partial curve, poor fit]
25 | O=C(O)C(=O)/C(=C\c1cccc2ccccc12)c1ccc2ccccc2n1 | – | inconclusive [activator, partial curve]
26 | Nc1ccc(OC(=O)Nc2ccc(O)cc2)cc1 | – | inconclusive [inhibitor, partial curve]
27 | COc1ccc2c(c1)CCc1c(C(=O)Nc3cc(C)n(Cc4ccc(Cl)cc4)n3)noc1-2 | inactive: 1.67% | –
28 | CC(OC(=O)c1nccnc1N)C(=O)Nc1ccc(S(=O)(=O)N2CCCC2)cc1 (centres undefined) | – | inconclusive [activator, single point]
29 | CCOc1ccc(C(=O)NCC(c2ccco2)N2CCOCC2)cc1 (centres undefined) | – | inconclusive [inhibitor, single point]
30 | CC1CCc2sc(C(=O)NCc3ccccn3)cc2C1 (centres undefined) | inactive: 10.7% | –
31 | OCCCNc1ncnc2sc3c(c12)CCN(Cc1ccccc1)C3 | – | inconclusive [activator, single point]
32 | O=[N+]([O-])c1cccc(S(=O)(=O)NCCCN2CCOCC2)c1 | – | inconclusive [activator, partial curve, poor fit]
33 | CCc1ccc(-c2nc3ccc(Br)cc3c(C(=O)O)c2C)s1 | – | inconclusive [activator, single point]
34 | N#CC1=C(N)NC(=S)C(C(N)=O)C1c1ccc([N+](=O)[O-])cc1 (centres undefined) | – | inconclusive [inhibitor, single point]
35 | CC(C)c1onc(C(=O)N2CCN(C(c3ccccc3)c3ccccc3)CC2)c1[N+](=O)[O-] | – | inconclusive [inhibitor, partial curve]
36 | CCc1cc2c(=O)oc(-c3ccc(F)cc3)nc2s1 | inactive: -2.1% | –
37 | Cc1nn(-c2ccccc2)c(C)c1/C=N/NC(=O)c1cc(-c2cccs2)[nH]n1 | inactive: -8.91% | –
38 | Cc1cccc(NC(=S)Nc2cccc(C(F)(F)F)c2)n1 | – | inconclusive [activator, partial curve]
39 | CCOC(=O)C1CCN(C(=O)c2cc3c(=O)n4ccccc4nc3s2)CC1 | – | inconclusive [activator, partial curve]
40 | COc1cccc(C=Nc2ccccc2C(=O)Nc2nccs2)c1OC | – | inconclusive [activator, partial curve]
41 | O=C(c1nn(-c2ccccc2)c(=O)c2ccccc12)N1CCN(c2ccccn2)CC1 | – | inconclusive [inhibitor, single point]
42 | COC(=O)C1=C(C(=O)OC)[C@@H]2N(C)c3ccccc3[C@@]23C[C@@H](CO)N(C(=O)c2ccco2)C3=N1 | inactive: -3.9% [at 12.8 µM] | –
43 | COc1ccc(CNc2nc(-c3ccc(C(=O)N(C)C)cc3)nc3ccccc23)c(OC)c1 | – | inconclusive [inhibitor, single point]
44 | Cc1cc2oc(=O)cc(-c3ccccc3)c2c(C)c1-c1ccc(O)cc1 | – | inconclusive [activator, partial curve]
45 | CCC(=O)NCCc1c[nH]c2ccccc12 | inactive: -4.31% | –
46 | O=C(Nc1cccc(-n2cnnn2)c1)c1ccoc1COc1ccc(Cl)cc1 | – | inconclusive [activator, single point]

Row | Structure (SMILES) | activity change, negative = inhibition | Potency
47 | CCOc1ccc(C(=O)N/N=C(\c2ccccc2)c2ccccn2)cc1 | – | inconclusive [activator, partial curve]
48 | NC1=NC[C@H](Cc2ccc(O)cc2)N1CCCCC1CCCCC1 | – | inconclusive [inhibitor, partial curve]
49 | CCOc1cnc(-c2ccc(Cl)cc2)o1 | inactive: 4.75% | –
50 | O=C(Cc1cccs1)Nc1nnc(-c2ccncc2)s1 | inactive: 1.01% | –
51 | Cc1cc(C(F)(F)F)n2nc(C(=O)O)c(Cl)c2n1 | inconclusive: 27% [activator] | –
52 | Cc1ccc2sc(N(CCCN(C)C)C(=O)c3ccc(S(=O)(=O)N4CCCCCC4)cc3)nc2c1C | – | inconclusive [inhibitor, single point]
53 | O=C(NCc1ccc(F)cc1)c1cc2c(s1)CCCC2 | – | inconclusive [activator, single point]
54 | Cc1ccc2nc(N3CCN(CCO)CC3)nc(-c3ccccc3)c2c1 | – | inconclusive [inhibitor, single point]
55 | COc1cccc(-c2cc(=O)c3ccccc3o2)c1N | – | inconclusive [activator, partial curve]
56 | O=C(Nc1ccccc1)Nc1nnc(Cc2ccc([N+](=O)[O-])cc2)s1 | inactive: 4.15% | –
57 | CCOc1ccc2c(c1)C(C)=CC(C)(C)N2C(=O)Nc1ccccc1 | inactive: 7.93% | –
58 | COc1ccc2oc(C(=O)Nc3ccc(S(=O)(=O)N(C)C4CCN(C)CC4)cc3)c(C)c2c1 | – | inconclusive [inhibitor, partial curve]
59 | COc1cc(OC)cc(C(=O)NC2CCCCCCC2)c1 | – | inconclusive [activator, single point]
60 | O=C(CN1C(=O)S/C(=C\c2ccc(F)cc2)C1=O)NCCCn1ccnc1 | – | inconclusive [inhibitor, partial curve]
61 | Cc1ccc2nc3c(cc(C(=O)NCCCn4ccnc4)n3C)c(=O)n2c1 | – | inconclusive [activator, partial curve]
62 | CCC(=O)Nc1nc(-c2ccc3c(c2)OCCO3)cs1 | inactive: -2.61% | –
63 | Cc1ccc(Oc2ccc(Oc3ccc(C)cc3)nn2)cc1 | inactive: 12.9% | –
64 | Cc1ccc(S(=O)(=O)c2c(N)n(/N=C/c3ccco3)c3nc4ccccc4nc23)cc1 | inactive: 7.46% | –
65 | Cc1cc[n+](-c2[nH]c(=O)sc2/C=N/N=C(\[O-])c2ccncc2)cc1 | inactive: -10.9% | –
66 | COc1ccc2cc3cc(C(=O)NCCC(C)C)oc3nc2c1 | – | inconclusive [activator, partial curve]
67 | CCN(C(=O)c1cc2c(=O)n3ccccc3nc2n1CCCOC)C1CCCCC1 | – | inconclusive [activator, single point]
68 | COc1ccc(C(=O)COC(=O)c2cc(S(=O)(=O)N3CCCCC3)ccc2N2CCOCC2)c(OC)c1 | – | inconclusive [activator, partial curve]
69 | O=C(O)c1ccccc1C(=O)NNc1ccc(Cl)cc1Cl | inactive: 1.32% | –
